Test results published in PubChem BioAssay AID1347073 (National Center for Advancing Translational Sciences (NCATS), 2019).
About 200 (0.44%) of roughly 45,000 compounds were called active. Another 7% or so got no clear call; they are omitted. Calls come from the whole dose curve; as a rule, active = well fitted activation curve with a large enough effect; inconclusive = small, poorly fitted or top-dose-only effect; inactive = no such curve, though single readings can be large or run the other way. This is one part of the list.

assay: qHTS of TDP-43 Inhibitors: NCGC Sytravon Library Screen; conditions: yeast TDP-43 toxicity rescue, BacTiter-Glo growth, 24 h; series mostly up to 46.1 µM; growth rescue (activation): at the top concentration; note: 0% is about no effect; nearly all actives have a fitted effect of over 55% in size
Method in brief: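 TDP-43-expressing yeast, pregrown in raffinose, seeded at OD600 0.02 in galactose medium with compound for 24 hr at 30 deg C. Growth read by BacTiter-Glo luminescence, so rescue of toxicity appears as activation.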

Row | Structure (SMILES) | growth rescue (activation)
1 | Cc1cc(C)cc(NC(=S)N2CCC(NC(=O)c3ccccc3C)CC2)c1 | inactive: 14.9%
2 | CCN(CC)Cc1c(C(=O)N/N=C(\C)c2ccncc2)nnn1-c1nonc1N | inactive: 2.89%
3 | O=[N+]([O-])c1ccc2c(c1)C(O)n1nc(-c3ccccc3)nc1S2 (stereo not drawn) | inactive: -16.8%
4 | COCCNC(=S)N1CCN(C(=O)C(=O)Nc2ccc(C(=O)OC)cc2)CC1 | inactive: 11.9%
5 | CCCCOc1ccc(C(=O)NCC(=O)NNC(=O)c2ccco2)cc1 | inactive: 6.63%
6 | O=C(Nc1ccc2c(c1)OCO2)C1Cc2c(-c3cccnc3)ccnc2O1 (stereo not drawn) | inactive: 8.16%
7 | CN(C)CCCNC(=S)N(Cc1cccs1)Cc1cc2cc3c(cc2[nH]c1=O)OCCO3 | inactive: 0.518%
8 | COc1ccccc1CCC(=O)Nc1ccc2c(c1)c(=O)n(C)n2Cc1ccc(F)cc1 | inactive: 10.8%
9 | Cc1ccc(NC(=S)N/N=C/c2cccn2Cc2ccccc2F)cc1 | inactive: -7.69%
10 | CCOC(=O)C1=C(C)OC(N)=C(C#N)C1c1cc(SCC)oc1C (stereo not drawn) | inactive: 12.3%
11 | CCOc1cc(NC(=S)NCC2CCCO2)c(OCC)cc1NC(=O)C1CC1 (stereo not drawn) | inactive: -6.24%
12 | COc1ccc(S(=O)(=O)NCC2CCCO2)cc1NC(=O)c1ccc(Cl)cc1 (stereo not drawn) | inactive: 3.44%
13 | COc1cc(/C=N/NC(=O)Cn2cnc3ccccc3c2=O)ccc1O | inactive: 13.2%
14 | CCC(=O)NC(=S)Nc1ccc(NC(=O)c2cc3ccccc3o2)c(OC)c1 | inactive: 6.38%
15 | COc1c2ccccc2c(OC)c2ccccc12 | inactive: -1.69%
16 | Nc1c2c(nc3cccc(Cl)c13)N(c1ccccc1)CC2 | inactive: 13.9%
17 | COc1ccc(S(=O)(=O)NC(C)C(=O)Nc2cccc([N+](=O)[O-])c2)cc1 (stereo not drawn) | inactive: 7.14%
18 | COc1ccccc1Cn1c(=S)[nH]c2ccc(F)cc2c1=O | inactive: 12.9%
19 | COCCNC(=O)C1CCCN(C(=O)COc2ccc(C(C)(C)C)cc2)CC1 (stereo not drawn) | inactive: -0.945%
20 | O=C(O)C1CC(O)CN1c1nc(Cl)ccc1[N+](=O)[O-] (stereo not drawn) | inactive: -9.72%
21 | Cc1cccc(NS(=O)(=O)c2cnc(Cl)c(Br)c2)n1 | inactive: 8.57%
22 | C=CCNC(=O)C1=NN(c2c(F)c(F)cc(F)c2F)C(=O)CC1 | inactive: -14%
23 | CN1CCN(CCC(=O)Nc2cccc(Br)c2)CC1 | inactive: 3.06%
24 | O=C(CCC(=O)Nc1ccc(F)cc1)N/N=C/c1cc([N+](=O)[O-])ccc1O | inactive: 14.8%
25 | Cn1c(=O)c2c(nc(N/N=C/c3cccnc3)n2Cc2ccccc2)n(C)c1=O | inactive: 4.7%
26 | Cn1c2ccccc2c(=O)c2c(=O)n(-c3ccc(F)cc3)c(-c3cccs3)nc21 | inactive: 0.305%
27 | Cc1c(Cl)cccc1NC(=S)N1CCC(C(N)=O)(N2CCCCC2)CC1 | inactive: 0.569%

Row | Structure (SMILES) | growth rescue (activation)
28 | CCOC(=O)c1sc(NC(=O)C(C)Oc2ccc(OC)cc2)c(C(=O)OCC)c1C (stereo not drawn) | inactive: -3.4%
29 | CCc1nnc(NC(=O)CSc2nc(-c3ccccc3)nc3ccccc23)s1 | inactive: 5.26%
30 | COc1cc(NC(=O)c2ccccc2)c(OC)cc1NC(=O)CSc1[nH]c(=O)cc(C)c1C#N | inactive: 21.2%
31 | Cc1cc(C)n(CC(=O)N2c3ccccc3Sc3ccc(C(F)(F)F)cc32)n1 | inactive: 27.5%
32 | COCCNc1ccc(S(=O)(=O)N2CCCC2)cc1[N+](=O)[O-] | inactive: -8.3%
33 | COc1ccc(NC(=O)COC(=O)CN2C(=O)C3CC=CCC3C2=O)c([N+](=O)[O-])c1 (stereo not drawn) | inactive: 9.07%
34 | COc1ccc(N(C)S(=O)(=O)c2cccc(C(=O)NCc3ccc4c(c3)OCO4)c2)cc1 | inactive: -11.7%
35 | Cc1nnc(NC(=O)CCC(=O)NCc2ccco2)s1 | inactive: -0.19%
36 | COc1ccc(CN2CC(C(=O)NCCCN3CCCCCC3)CC2=O)cc1 (stereo not drawn) | inactive: 13.5%
37 | CC(=O)Nc1ccc(S(=O)(=O)NCc2nc(-c3cccc(C)c3)no2)cc1 | inactive: -19.6%
38 | CCOc1ccc(CN2CCNC(=O)C2CC(=O)N(C)Cc2nonc2C)cc1 (stereo not drawn) | inactive: -16.7%
39 | CCN1CCN(c2ncc(C(=O)N3CCN(c4ccccc4OC)CC3)c3ccccc23)CC1 | inactive: 15.4%
40 | COCCNC(=O)Cn1cnc2sc(C)c(S(=O)(=O)N3CCN(c4ccccc4OC)CC3)c2c1=O | inactive: -0.204%
41 | CCOc1ccc(Br)cc1S(=O)(=O)Nc1ncn[nH]1 | inactive: 6.86%
42 | Cc1ccc(-n2nnnc2SCC(=O)NNC(=O)c2ccc([N+](=O)[O-])cc2)cc1 | inactive: 0.116%
43 | CCOC(=O)C1(C)CCN1C(=O)c1cccc(Cl)c1 (stereo not drawn) | inactive: 5.13%
44 | COc1ccccc1NC(=O)Cn1nnc(-c2ccccc2NC(=O)c2cccs2)n1 | inactive: 14.2%
45 | COc1ccc(NC(=O)CN(C)CC(=O)Nc2ccc(Cl)c(S(=O)(=O)N(C)C)c2)cc1 | inactive: -4.16%
46 | CCCc1nnc(SCc2ccc(C(=O)OC)o2)n1N | inactive: -11.1%
47 | Cc1cc(C)n(-c2cc(O)c(-n3nc(C)cc3C)cc2O)n1 | inactive: -16.6%
48 | CCOC(=O)C1(C(F)(F)F)N=C(c2cccnc2)OC(N2CCCCC2)=N1 (stereo not drawn) | inactive: 13.2%
49 | COc1ccccc1NC(=O)CN(Cc1ccco1)C(=O)c1ccc(N2CCCC2=O)cc1 | inactive: 2.44%
50 | COc1ccc(C(CNC(=O)c2ccc(S(=O)(=O)Nc3ccc(F)cc3)cc2)N(C)C)cc1 (stereo not drawn) | inactive: -3.68%
51 | O=C(/C=C/c1ccccc1Cl)N(Cc1ccccc1)C1CCS(=O)(=O)C1 (stereo not drawn) | inactive: 16.4%
52 | Cc1ccc(Cn2nnc3c(=O)[nH]c(C4CCCN(C(=O)c5ccco5)C4)nc32)cc1 (stereo not drawn) | inactive: 10.7%
53 | CC(C)Cn1c(=O)c2sccc2n2c(CCCC(=O)NC3CCN(Cc4ccccc4)CC3)nnc12 | inactive: 7.69%
